From publication PMC4336329 (PLoS ONE, 2015) come the findings set out here.

Hit rate of the full screen: of about 310,000 compounds, about 14,000 (4.5%) showed an effect of 50% or more. The effect is printed as a negative number. The list shows a part of the results.
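Also: peak tail current of the secondary pulse compared with the same well before compound.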

The assay deals with human ether-à-go-go-related gene (hERG) potassium channel (human, UniProt Q12809). The experiment in a line: primary screen, population patch clamp on CHO cells stably expressing hERG.
Sequence of human ether-à-go-go-related gene (hERG) potassium channel (Q12809 whole entry, looked up): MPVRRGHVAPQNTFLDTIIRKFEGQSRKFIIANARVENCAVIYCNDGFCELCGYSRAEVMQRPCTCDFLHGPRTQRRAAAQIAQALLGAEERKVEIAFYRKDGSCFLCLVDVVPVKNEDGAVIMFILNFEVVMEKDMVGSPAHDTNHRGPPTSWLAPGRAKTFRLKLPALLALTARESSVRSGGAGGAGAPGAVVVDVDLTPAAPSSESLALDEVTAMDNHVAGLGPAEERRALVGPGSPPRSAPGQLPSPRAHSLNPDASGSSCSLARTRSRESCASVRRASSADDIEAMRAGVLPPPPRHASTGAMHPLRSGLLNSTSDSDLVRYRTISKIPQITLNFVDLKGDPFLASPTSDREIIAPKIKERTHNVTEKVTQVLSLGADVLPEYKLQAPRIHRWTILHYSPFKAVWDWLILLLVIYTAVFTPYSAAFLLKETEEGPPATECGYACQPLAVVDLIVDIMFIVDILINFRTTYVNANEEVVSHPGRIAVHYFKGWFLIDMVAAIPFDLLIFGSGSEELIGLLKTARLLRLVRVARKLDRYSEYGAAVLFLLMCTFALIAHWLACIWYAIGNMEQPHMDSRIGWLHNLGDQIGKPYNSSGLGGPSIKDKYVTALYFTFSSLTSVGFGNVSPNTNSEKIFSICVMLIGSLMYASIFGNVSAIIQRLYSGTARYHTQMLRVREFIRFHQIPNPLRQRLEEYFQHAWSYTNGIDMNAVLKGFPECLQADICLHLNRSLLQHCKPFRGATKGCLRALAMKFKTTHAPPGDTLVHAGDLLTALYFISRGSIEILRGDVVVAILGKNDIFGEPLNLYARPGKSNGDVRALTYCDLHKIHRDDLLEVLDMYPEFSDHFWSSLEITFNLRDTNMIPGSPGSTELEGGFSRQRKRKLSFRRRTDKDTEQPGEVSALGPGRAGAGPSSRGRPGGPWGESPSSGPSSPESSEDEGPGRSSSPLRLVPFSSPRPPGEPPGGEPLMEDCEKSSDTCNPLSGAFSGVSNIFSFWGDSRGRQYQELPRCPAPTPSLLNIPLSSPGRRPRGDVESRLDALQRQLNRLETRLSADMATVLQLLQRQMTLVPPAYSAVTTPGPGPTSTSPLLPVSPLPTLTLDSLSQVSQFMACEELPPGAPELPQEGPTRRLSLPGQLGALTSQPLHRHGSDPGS
For the compound `Cc1ccc(N2CC(C(=O)NC3=NCCS3)CC2=O)cc1C` (stereo not drawn), the “hERG current change (%, negative = inhibition) at 10uM” value is 0.808%. Turning to `Cc1ccc(-c2nnc(OCc3nc4ccccc4n3C)c3ccccc23)cc1`, the “hERG current change (%, negative = inhibition) at 10uM” value was -12%.

For `O=C(N/N=C/c1cn(-c2cccs2)nc1-c1ccccc1)c1ccccc1Br`, the “hERG current change (%, negative = inhibition) at 10uM” value was 7.79%. Then `C#CC1(NC(=O)NC(=O)c2c(F)cccc2F)CCCCC1`, with 8.83%.

As to `O=C(Nc1ccncc1)c1cccc(S(=O)(=O)N2CCOCC2)c1`, the “hERG current change (%, negative = inhibition) at 10uM” value was -58.4%.

On to `Cc1cc(NC(=O)c2sccc2C)n(-c2nc3ccccc3[nH]2)n1`, for which the “hERG current change (%, negative = inhibition) at 10uM” value is on record as 19.7%. Then `COC(=O)c1ccc(C2c3[nH]c4ccccc4c3C[C@H]3C(=O)N(C4CCN(Cc5ccccc5)CC4)CC(=O)N23)cc1` (stereo partly drawn), with -10%; and `CCCOc1cccc(-c2nnc(N)s2)c1`, with 0.334%.

With `CC(Oc1ccc2c3c(c(=O)oc2c1)CCC3)C(=O)NCc1ccccn1` (stereo not drawn), the “hERG current change (%, negative = inhibition) at 10uM” value turned out to be 6.35%.

Turning to `Cc1cc(NC(=O)c2ccc(S(=O)(=O)N(C)C)cc2)no1`, the “hERG current change (%, negative = inhibition) at 10uM” value is 15.5%. As for `CCCc1cc(N2CCCC(C(=O)NCC)C2)n2ncnc2n1` (stereo not drawn), the “hERG current change (%, negative = inhibition) at 10uM” value was -27.3%. The value for `COc1ccc(NC(=O)c2c(-c3ccccc3)noc2C)c(OC)c1` was -7.61%. The value for `COC(=O)/C=C1\S/C(=N\N=C\CC(=O)OC)NC1=O` was 10.2%; that for `CCOc1ccc(NC(=O)c2cc3cc4ccc(OC)cc4nc3o2)cc1` was 17.6%; that for `CCOc1ccccc1NC(=S)NCCc1ccccc1` was 4.14%. On to `COc1cccc(NC(=O)NCc2ccccc2F)c1`, for which the “hERG current change (%, negative = inhibition) at 10uM” value is 0.0831%. The value for `CCOC(=O)c1nnc(-c2ccc(C)cc2)nc1Sc1ccc(Cl)cc1` was 4.36%; that for `Cc1ccc2c(c1)C1CCCC3C1N2CC(=O)N3Cc1ccccc1` (stereo not drawn) was 11.1%. The value for `O=C(NC1CC2CCCC(C1)N2C(=O)N1CCCCC1)C1CCCCC1` (stereo not drawn) was -12.1%; that for `O=[N+]([O-])c1ccc(N2CCN(c3ccc(O)cc3)CC2)c(Cl)c1` was -3.4%; that for `O=C(CSc1nnc(C2CC2)n1-c1ccccc1)N1CCNC1=O` was 8.84%. Then `O=S(=O)(c1ccc(Cl)s1)N1CCN(C/C=C/c2ccccc2)CC1`, with -18.5%; and `O=C(Nc1ccc(F)cc1)N1CCN(c2ccc3nnc(-c4ccc(F)cc4)n3n2)CC1`, with -73.5%; and `CCCCn1c(N)c(N(CC(C)C)C(=O)C2CCCN(C(=O)c3ccc(Cl)cc3)C2)c(=O)[nH]c1=O` (stereo not drawn), with 17.6%.

For the compound `COc1ccc(-n2nnnc2-c2ccccc2)cc1`, the “hERG current change (%, negative = inhibition) at 10uM” value is reported as -0.233%.

As for `COc1cc(/C=C2\C(=O)NC(=O)N(CCc3ccc(F)cc3)C2=O)ccc1O`, the “hERG current change (%, negative = inhibition) at 10uM” value was determined as 17.7%. Then `CCOc1cc(C(=O)Nc2ccc3c4c(cccc24)C(=O)N3CC)cc(OCC)c1OCC`, with -5.15%; and `Cc1ccc(CNS(=O)(=O)c2ccc(CN3C(=O)c4cccnc4C3=O)cc2)o1`, with 4.85%; and `COC(=O)c1ccc(NC(=O)CN2CCN(S(=O)(=O)c3cc(Cl)ccc3OC)CC2)cc1`, with -19.3%.

On to `COc1ccc(CN(C)C(=O)c2ccccc2Sc2ccccc2C#N)c(OC)c1`, for which the “hERG current change (%, negative = inhibition) at 10uM” value was 0.887%. On to `COc1ccc(C(=O)Nc2cc3c4c(c2)CC(=O)N4CCC3)cc1`, for which the “hERG current change (%, negative = inhibition) at 10uM” value is given as -12.8%. The value for `CCOC(=O)CCCNC(=O)COC(=O)c1ccc(O)cc1` was 5.64%; that for `COc1ccc(NC(=O)CN2C(=O)COc3ccc(C)cc32)cc1` was 13.5%. For `O=C(Nc1cccc(Br)c1)c1ccn[nH]1`, the “hERG current change (%, negative = inhibition) at 10uM” value is reported as -1.32%.

As for `CC(C)(C)CC(=O)Nc1nnc(SCC(=O)NCc2cccs2)s1`, the “hERG current change (%, negative = inhibition) at 10uM” value was determined as 35.2%. The value for `CC(C)c1ccc(CN2CCSCC2)cc1` was 1.69%; that for `COc1ccc(N2C(=O)CC(Sc3nnc(-c4ccccc4)o3)C2=O)cc1` (stereo not drawn) was -22%. Then `CCCC(=O)Nc1ccc(S(=O)(=O)N2CCCC2)cc1`, with -2.63%. The value for `Cc1c(C(=O)O)oc2ccc(S(=O)(=O)NC3CCCCCCC3)cc12` was 15.3%. With `C/C(Cl)=C\C[N+](C)(C)CC(=O)OCCc1ccccc1.[Br-]`, the “hERG current change (%, negative = inhibition) at 10uM” value was -1.63%. For the compound `OCCNc1nc(N2CCOCC2)nc(N2CCOCC2)n1`, the “hERG current change (%, negative = inhibition) at 10uM” value amounted to 2.77%. The value for `Cc1cccc(NC(=O)NCc2ccc3c(c2)cc(C)n3C)c1` was 1.95%. Take `O=C(Nc1ncnc2sc3c(c12)CCCCC3)c1ccccc1`: the “hERG current change (%, negative = inhibition) at 10uM” value is -4.62%. As to `COCCCNCC(=O)Nc1ccc(OC(F)(F)F)cc1.Cl`, the “hERG current change (%, negative = inhibition) at 10uM” value was -30%. Consider `CCOC(=O)C1CCCN(C(=O)c2cc3c(=O)n(C)c4ccccc4c3n2C)C1` (stereo not drawn), for which the “hERG current change (%, negative = inhibition) at 10uM” value is on record as -7.02%.
